{
  "source": "patent US20250002564A1",
  "about": "(HOSPITAL FOR SICK CHILDREN, published 2025)",
  "binders": {"B1": {"name": "MB 64 (other)", "chain 1": "DIQMTQSPSSLSASVGDRVTITCRASQGISSHLAWYQQKPGKAPKLLIYDASNLETGVPSRFSGSGSGTDFTLTISSLQPEDFATYYCQQTYSTPWTFGQGTKVEIKRTVAAPSVFIFPPSDEQLKSGTASVVCLLNNFYPREAKVQWKVDNALQSGNSQESVTEQDSKDSTYSLSSTLTLSKADYEKHKVYACEVTHQGLSSPVTKSFNRGECGGGGSGGGGSGGGGSGGGGSGGGGSGGGGSGGGGSGGGGSGGGGSGGGGSGGGGSGGGGSGGGGSGGGGSEVQLLESGGGLVQPGGSLRLSCAASGFPFSQHGMHWVRQAPGKGLEWVSAIDRSGSYIYYADSVKGRFTISRDNSKNTLYLQMNSLRAEDTAVYYCARDTYGGKVTYFDYWGQGTLVTVSSASTKGPSVFPLAPSSKSTSGGTAALGCLVKDYFPEPVTVSWNSGALTSGVHTFPAVLQSSGLYSLSSVVTVPSSSLGTQTYICNVNHKPSNTKVDKKVEPKSCGGGGSGGGGSGGGGSGGGGSGGGGSGG[about 200 residues omitted]", "chain 2": "[human IgG1 Fc omitted]GGGGSGGGGSGGGGSGGGGSGGGGSGGGGSGGGGSGGGGSGGGGSGGGGSGGGGSGGGGSGGGGSGGGGS[human IgG1 Fc omitted]GGGGSGGGGSGGGGSGGGGSGGGGSGGSSQIRQNYSTDVEAAVNSLVNLYLQASYTYLSLGFYFDRDDVALEGVSHFFRELAEEKREGYERLLKMQNQRGGRALFQDIKKPAEDEW", "chain 3": "DIQMTQSPSSLSASVGDRVTITCRASQGISSHLAWYQQKPGKAPKLLIYDASNLETGVPSRFSGSGSGTDFTLTISSLQPEDFATYYCQQTYSTPWTFGQGTKVEIKRTVAAPSVFIFPPSDEQLKSGTASVVCLLNNFYPREAKVQWKVDNALQSGNSQESVTEQDSKDSTYSLSSTLTLSKADYEKHKVYACEVTHQGLSSPVTKSFNRGECGGGGSGGGGSGGGGSGGGGSGGGGSGGGGSGGGGSGGGGSGGGGSGGGGSGGGGSGGGGSGGGGSGGGGSEVQLLESGGGLVQPGGSLRLSCAASGFPFSQHGMHWVRQAPGKGLEWVSAIDRSGSYIYYADSVKGRFTISRDNSKNTLYLQMNSLRAEDTAVYYCARDTYGGKVTYFDYWGQGTLVTVSSASTKGPSVFPLAPSSKSTSGGTAALGCLVKDYFPEPVTVSWNSGALTSGVHTFPAVLQSSGLYSLSSVVTVPSSSLGTQTYICNVNHKPSNTKVDKKVEPKSCGGGGSGGGGSGGGGSGGGGSGGGGSGGGKTPDAMKAAMALEKKLNQALLDLHALGSARTDPHLCDFLETHFLDEEVKLIKKMGDHLTNLHRLGGPEAGLGEYLFERLTLRHD"}, "B2": {"name": "MB 178 (other)", "chain 1": "EIVMTQSPATLSVSPGERATLSCKASQSVSGTYLAWYQQKPGQAPRLLIYGASTRATGIPARFSGSGSGTEFTLTISSLQSEDFAVYYCLQTHSYPPTFGQGTKVEIKRTVAAPSVFIFPPSDEQLKSGTASVVCLLNNFYPREAKVQWKVDNALQSGNSQESVTEQDSKDSTYSLSSTLTLSKADYEKHKVYACEVTHQGLSSPVTKSFNRGECGGGGSGGGGSGGGGSGGGGSGGGGSGGGGSGGGGSGGGGSGGGGSGGGGSGGGGSGGGGSGGGGSGGGGSQVQLVQSGAEVKKPGASVKVSCKASGYTFTDYHMHWVRQAPGQGLEWMGWINPNSGGTNYAQKFQGRVTMTRDTSTSTVYMELSSLRSEDTAVYYCARDISSWYEITKFDPWGQGTLVTVSSASTKGPSVFPLAPSSKSTSGGTAALGCLVKDYFPEPVTVSWNSGALTSGVHTFPAVLQSSGLYSLSSVVTVPSSSLGTQTYICNVNHKPSNTKVDKKVEPKSCGGGGSGGGGSGGGGSGGGGSGGGGSGG[about 200 residues omitted]", "chain 2": "B1 chain 2", "chain 3": "EIVMTQSPATLSVSPGERATLSCKASQSVSGTYLAWYQQKPGQAPRLLIYGASTRATGIPARFSGSGSGTEFTLTISSLQSEDFAVYYCLQTHSYPPTFGQGTKVEIKRTVAAPSVFIFPPSDEQLKSGTASVVCLLNNFYPREAKVQWKVDNALQSGNSQESVTEQDSKDSTYSLSSTLTLSKADYEKHKVYACEVTHQGLSSPVTKSFNRGECGGGGSGGGGSGGGGSGGGGSGGGGSGGGGSGGGGSGGGGSGGGGSGGGGSGGGGSGGGGSGGGGSGGGGSQVQLVQSGAEVKKPGASVKVSCKASGYTFTDYHMHWVRQAPGQGLEWMGWINPNSGGTNYAQKFQGRVTMTRDTSTSTVYMELSSLRSEDTAVYYCARDISSWYEITKFDPWGQGTLVTVSSASTKGPSVFPLAPSSKSTSGGTAALGCLVKDYFPEPVTVSWNSGALTSGVHTFPAVLQSSGLYSLSSVVTVPSSSLGTQTYICNVNHKPSNTKVDKKVEPKSCGGGGSGGGGSGGGGSGGGGSGGGGSGGGKTPDAMKAAMALEKKLNQALLDLHALGSARTDPHLCDFLETHFLDEEVKLIKKMGDHLTNLHRLGGPEAGLGEYLFERLTLRHD"}, "B3": {"name": "MB 108 (other)", "chain 1": "DIQMTQSPSSLSASVGDRVTITCRASQVITNNLAWYQQKPGKAPKLLIYDASTLETGVPSRFSGSGSGTDFTLTISSLQPEDFATYYCQQSYTFPYTFGQGTKVEIKRTVAAPSVFIFPPSDEQLKSGTASVVCLLNNFYPREAKVQWKVDNALQSGNSQESVTEQDSKDSTYSLSSTLTLSKADYEKHKVYACEVTHQGLSSPVTKSFNRGECGGGGSGGGGSGGGGSGGGGSGGGGSGGGGSGGGGSGGGGSGGGGSGGGGSGGGGSGGGGSGGGGSGGGGSQVQLVQSGAEVKKPGASVKVSCKASGYIFSRYAIHWVRQAPGQGLEWMGWMNPISGNTDYAPNFQGRVTMTRDTSTSTVYMELSSLRSEDTAVYYCAKDGSQLAYLVEYFQHWGQGTLVTVSSASTKGPSVFPLAPSSKSTSGGTAALGCLVKDYFPEPVTVSWNSGALTSGVHTFPAVLQSSGLYSLSSVVTVPSSSLGTQTYICNVNHKPSNTKVDKKVEPKSCGGGGSGGGGSGGGGSGGGGSGGGGSGG[about 200 residues omitted]", "chain 2": "B1 chain 2", "chain 3": "DIQMTQSPSSLSASVGDRVTITCRASQVITNNLAWYQQKPGKAPKLLIYDASTLETGVPSRFSGSGSGTDFTLTISSLQPEDFATYYCQQSYTFPYTFGQGTKVEIKRTVAAPSVFIFPPSDEQLKSGTASVVCLLNNFYPREAKVQWKVDNALQSGNSQESVTEQDSKDSTYSLSSTLTLSKADYEKHKVYACEVTHQGLSSPVTKSFNRGECGGGGSGGGGSGGGGSGGGGSGGGGSGGGGSGGGGSGGGGSGGGGSGGGGSGGGGSGGGGSGGGGSGGGGSQVQLVQSGAEVKKPGASVKVSCKASGYIFSRYAIHWVRQAPGQGLEWMGWMNPISGNTDYAPNFQGRVTMTRDTSTSTVYMELSSLRSEDTAVYYCAKDGSQLAYLVEYFQHWGQGTLVTVSSASTKGPSVFPLAPSSKSTSGGTAALGCLVKDYFPEPVTVSWNSGALTSGVHTFPAVLQSSGLYSLSSVVTVPSSSLGTQTYICNVNHKPSNTKVDKKVEPKSCGGGGSGGGGSGGGGSGGGGSGGGGSGGGKTPDAMKAAMALEKKLNQALLDLHALGSARTDPHLCDFLETHFLDEEVKLIKKMGDHLTNLHRLGGPEAGLGEYLFERLTLRHD"}, "B4": {"name": "MB 128 (other)", "chain 1": "DIQMTQSPSSLSASVGDRVTITCRASQNISRYLNWYQQKPGKAPKLLIYDASNLETGVPSRFSGSGSGTDFTLTISSLQPEDFATYYCQQANGFPPTFGQGTKLEIKRTVAAPSVFIFPPSDEQLKSGTASVVCLLNNFYPREAKVQWKVDNALQSGNSQESVTEQDSKDSTYSLSSTLTLSKADYEKHKVYACEVTHQGLSSPVTKSFNRGECGGGGSGGGGSGGGGSGGGGSGGGGSGGGGSGGGGSGGGGSGGGGSGGGGSGGGGSGGGGSGGGGSGGGGSQVQLVQSGAEVKKPGASVKVSCKASGYTFTHYYMHWVRQAPGQGLEWMGIINPSSSSASYSQKFQGRVTMTRDTSTSTVYMELSSLRSEDTAVYYCARDGRYGSGSYPFDYWGQGTLVTVSSASTKGPSVFPLAPSSKSTSGGTAALGCLVKDYFPEPVTVSWNSGALTSGVHTFPAVLQSSGLYSLSSVVTVPSSSLGTQTYICNVNHKPSNTKVDKKVEPKSCGGGGSGGGGSGGGGSGGGGSGGGGSGG[about 200 residues omitted]", "chain 2": "B1 chain 2", "chain 3": "DIQMTQSPSSLSASVGDRVTITCRASQNISRYLNWYQQKPGKAPKLLIYDASNLETGVPSRFSGSGSGTDFTLTISSLQPEDFATYYCQQANGFPPTFGQGTKLEIKRTVAAPSVFIFPPSDEQLKSGTASVVCLLNNFYPREAKVQWKVDNALQSGNSQESVTEQDSKDSTYSLSSTLTLSKADYEKHKVYACEVTHQGLSSPVTKSFNRGECGGGGSGGGGSGGGGSGGGGSGGGGSGGGGSGGGGSGGGGSGGGGSGGGGSGGGGSGGGGSGGGGSGGGGSQVQLVQSGAEVKKPGASVKVSCKASGYTFTHYYMHWVRQAPGQGLEWMGIINPSSSSASYSQKFQGRVTMTRDTSTSTVYMELSSLRSEDTAVYYCARDGRYGSGSYPFDYWGQGTLVTVSSASTKGPSVFPLAPSSKSTSGGTAALGCLVKDYFPEPVTVSWNSGALTSGVHTFPAVLQSSGLYSLSSVVTVPSSSLGTQTYICNVNHKPSNTKVDKKVEPKSCGGGGSGGGGSGGGGSGGGGSGGGGSGGGKTPDAMKAAMALEKKLNQALLDLHALGSARTDPHLCDFLETHFLDEEVKLIKKMGDHLTNLHRLGGPEAGLGEYLFERLTLRHD"}, "B5": {"name": "VHH-72-Fc (Fc fusion)", "chain": "QVQLQESGGGLVQAGGSLRLSCAASGRTFSEYAMGWFRQAPGKEREFVATISWSGGSTYYTDSVKGRFTISRDNAKNTVYLQMNSLKPDDTAVYYCAAAGLGTVVSEWDYDYDYWGQGTQVTVSSGS[human IgG1 Fc omitted]"}},
  "note": "Where “and” joins values, the source holds several entries; their conditions need not be identical. Equal values may be shown once.",
  "data": [
    {"target": "T1, SARS-CoV-2 Spike on wild-type pseudotyped virus (PsV) (SARS-CoV-2)", "assay": "cell-based or functional assay", "units": {"IC50 SARS-CoV2 PsV (MB)": "µg/mL"}, "values": [
      {"binder": "B1", "IC50 SARS-CoV2 PsV (MB)": 14},
      {"binder": "B2", "IC50 SARS-CoV2 PsV (MB)": 1.7},
      {"binder": "B3", "IC50 SARS-CoV2 PsV (MB)": 0.37},
      {"binder": "B4", "IC50 SARS-CoV2 PsV (MB)": 3.5}
    ]},
    {"target": "T1, SARS-CoV-2 Spike on wild-type …", "assay": "cell-based or functional assay", "remark": "another data set of the same source", "units": {"Median IC50": "nM"}, "values": [
      {"binder": "B5", "Median IC50": 16}
    ]},
    {"target": "T1, SARS-CoV-2 Spike on wild-type …", "assay": "cell-based or functional assay", "remark": "another data set of the same source", "values": [
      {"binder": "B1", "Median IC50": "14 µg/mL and 6.1 nM"},
      {"binder": "B2", "Median IC50": "1.7 µg/mL and 0.74 nM"},
      {"binder": "B3", "Median IC50": "0.37 µg/mL and 161 pM"},
      {"binder": "B4", "Median IC50": "3.5 µg/mL and 1.5 nM"}
    ]}
  ]
}
